Source: PubChem BioAssay AID488969 (Vanderbilt High Throughput Screening Facility, 2010)
Where “and” joins values, the source holds several entries; their conditions need not be identical. Equal values may be shown once. Over roughly 110,000 compounds, “z-score” has its median near -0.1; the highest 2% begin near 2. Some of the results follow. Calls of active or inactive are those of the source.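 How the source made its calls: active means z-score in the third read window above 3 or below -3; inactive means the rest.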

Each compound was assayed against Metabotropic glutamate receptor 8 (Rattus norvegicus) (UniProt P70579) (assay: mGluR8 Gi/Go-coupled signaling modulation – cell-based, rat, thallium flux, HTS, primary screen (AID 488969)). Conditions: HEK293 rat mGluR8, GIRK (G protein-gated inwardly rectifying potassium channel) thallium flux, FluoZin2; at 10 µM; stronger effect = higher value; submaximal glutamate (EC20) added with thallium.
UniProt P70579, sequence (P70579 whole entry, looked up): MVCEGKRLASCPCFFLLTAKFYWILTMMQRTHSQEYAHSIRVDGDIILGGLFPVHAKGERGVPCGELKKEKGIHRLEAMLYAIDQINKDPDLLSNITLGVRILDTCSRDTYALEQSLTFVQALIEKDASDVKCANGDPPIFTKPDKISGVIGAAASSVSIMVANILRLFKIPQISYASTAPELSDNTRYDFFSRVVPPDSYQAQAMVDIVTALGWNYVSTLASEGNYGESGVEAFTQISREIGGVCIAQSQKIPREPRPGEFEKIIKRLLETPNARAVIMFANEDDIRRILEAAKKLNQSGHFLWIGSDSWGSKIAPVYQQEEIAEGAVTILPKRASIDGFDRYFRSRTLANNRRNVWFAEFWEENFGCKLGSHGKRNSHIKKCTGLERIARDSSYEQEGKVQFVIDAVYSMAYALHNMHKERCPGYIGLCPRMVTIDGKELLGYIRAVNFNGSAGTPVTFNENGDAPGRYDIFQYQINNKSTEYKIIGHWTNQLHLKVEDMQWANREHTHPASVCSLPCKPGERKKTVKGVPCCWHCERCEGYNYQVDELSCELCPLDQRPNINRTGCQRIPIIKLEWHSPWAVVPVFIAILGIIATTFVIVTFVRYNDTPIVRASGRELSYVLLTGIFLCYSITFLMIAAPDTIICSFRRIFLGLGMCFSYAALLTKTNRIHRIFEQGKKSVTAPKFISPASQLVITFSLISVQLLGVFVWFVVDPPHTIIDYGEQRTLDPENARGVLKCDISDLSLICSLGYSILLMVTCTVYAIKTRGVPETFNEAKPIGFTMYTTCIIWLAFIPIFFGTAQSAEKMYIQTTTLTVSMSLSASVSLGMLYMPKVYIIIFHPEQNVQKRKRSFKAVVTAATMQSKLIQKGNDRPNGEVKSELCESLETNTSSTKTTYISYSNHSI

Compound	z-score
CSCCC(NC(=O)c1cncc(Br)c1)C(=O)O (centres undefined)	0.306
CCC(=O)N1CCN(c2ccc(Cl)cc2NC(=O)c2ccc(Br)o2)CC1	0.00401
CC(=O)NC1(c2ccccc2)CCN(C(=O)N2CCOCC2)CC1	1.61
CCN1CCN(C(=O)c2cc3nc(-c4ccccc4)cc(C(F)(F)F)n3n2)CC1	0.0572
O=C(NCc1ccc(F)cc1)c1ccc(CS(=O)(=O)Cc2ccc(F)cc2)o1	-0.313
Cc1ccc(NC(=O)COC(=O)CCC(=O)c2cccs2)cc1S(=O)(=O)N1CCOCC1	-0.276
CC(=O)c1nc(N2C(=O)CC(Cc3ccc(C)cc3)C2=O)sc1C (centres undefined)	-0.714
COc1ccc(C(C)=O)cc1CSc1nnc(-c2ccc(Cl)cc2)n1-c1ccccc1	-0.682
Cc1cc(NC(=O)c2noc3c2CCCC3)nn1Cc1ccc(Cl)cc1	0.522
C=CCn1c(O)c(C=Nc2ccc(Cc3ccncc3)cc2)c(=O)[nH]c1=S	-0.0822
CN(C)c1ncc(S(=O)(=O)c2ccccc2)c(-c2ccc(Cl)cc2Cl)n1	-0.073
CCOc1ccc2nc(Cl)c(C3CC(c4ccccc4)=NN3C(=O)c3cccs3)cc2c1 (centres undefined)	-0.13
COC(=O)c1ccc(C2c3c(oc4ccccc4c3=O)C(=O)N2CCCN2CCOCC2)cc1 (centres undefined)	0.249
COc1ccc2c(c1)Cc1sc(NC(C)=O)nc1-2	-0.0354
CCOC(=O)c1ccc(N=c2sc(C(=O)OC)cc(=O)n2CCCN2CCOCC2)cc1	0.736
O=C(/C=C/c1ccc(S(=O)(=O)NCc2ccco2)cc1)NCc1ccccc1Cl	0.0386
CCc1ccc2[nH]c(=O)c(CN(Cc3ccc4c(c3)OCO4)Cc3nnnn3C3CCCC3)cc2c1	-0.918
O=C(NC1CCCC1)C(c1cccnc1)N(C(=O)c1csnn1)C1CCCC1 (centres undefined)	-0.145
CN(C)S(=O)(=O)c1ccc(Cl)c(NC(=O)CSc2nc3ccccc3c(=O)n2CCCN2CCOCC2)c1	-0.013
COc1ccc(C2=C(N)c3ccccc3C2=O)cc1	0.623
COc1cccc(-c2nnc(NC(=O)Cc3cccs3)s2)c1	-0.044
Cc1nn(-c2ccc(C(=O)O)cc2)c(=O)c2ccccc12	0.142
O=[N+]([O-])c1ccc(N2CCN(c3ccc(Cl)nn3)CC2)c(Cl)c1	0.0522
COc1cccc(C2C3=C(Nc4[nH]n(-c5ccccc5)c(=O)c42)c2ccccc2C3=O)c1 (centres undefined)	-0.169
COc1ccc(S(=O)(=O)N(C)CC(=O)Nc2ccc(F)cc2)cc1	0.402
O=C(O)Cc1ccc(C(=O)c2ccccc2F)s1	0.48
COC(=O)C12CC3CC(C1)CC(n1cnc(Cl)n1)(C3)C2	0.327

Compound	z-score
CCCOc1ccc(S(=O)(=O)NNC(=O)c2cc3ccccc3o2)cc1	-0.117
CCCNC(=O)C(Sc1ccccc1)c1ccccc1 (centres undefined)	-0.184
CCN1CCN(CCCNC(=O)c2cc3sccc3n2CC)CC1	-0.406
CCOC(=O)c1ccc(NC(=O)C(C)N2C(=O)c3ccccc3C2=O)cc1 (centres undefined)	0.0109
COc1cc2cc(C(=O)Nc3ccccc3)c(N)nc2cc1OC	-1.08
COC(=O)c1cc(=O)n(CCc2ccc(OC)cc2)c(=Nc2ccc(F)c(Cl)c2)s1	active: 9.49
Cc1cccc(C(=O)Nc2sc3c(c2C#N)CCCCC3)c1	-0.209
Cc1c(C)c2ccc(OS(C)(=O)=O)cc2oc1=O	-0.191
Cc1ccc(C)c(NC(=S)NC(NC(=O)N(C)C)C(Cl)(Cl)Cl)c1 (centres undefined)	0.00458
COC(=O)CN(c1ccc2c(c1)OCO2)S(C)(=O)=O	0.0344
CCCCOC(=O)CSC1=C(C#N)C(c2ccccc2OC)C(C#N)C(=O)N1 (centres undefined)	-1.3
Cc1ccc2[nH]c(=O)c(NC(N)=S)nc2c1	0.252
Cc1cccc(NC(=S)/N=C(\N)Nc2nc(C)c3ccccc3n2)c1	-0.173
O=C(Nc1cnc2ccccc2c1)c1cccnc1	0.599
CC(=O)Nc1ccc(S(=O)(=O)Oc2ccc(C=O)cc2)cc1	-0.417
COc1ccc(OCC(=O)NNC(=O)c2cccc(S(=O)(=O)N(C)C)c2)cc1	0.309
CCOC(=O)c1c(C)[nH]c(C(=O)COC(=O)c2ccccc2NC(=O)c2ccco2)c1C	-0.00749
Cc1ccc(C2C(C(=O)c3ccco3)=C(O)C(=O)N2c2nnc(C)s2)cc1 (centres undefined)	-0.959
Cn1c(C(=O)NCCc2c[nH]c3ccccc23)cc2sccc21	-0.444
CC1=C(C(=O)OCc2ccccc2)C(c2ccsc2)C(C#N)=C(N)O1 (centres undefined)	0.0631
CCOC(=O)c1cnc2c(-c3ccccc3)c(C)nn2c1N	0.423
COc1ccc(-c2coc3cc4oc(=O)cc(C)c4cc23)cc1F	-0.258
COc1ccc2nc(C)cc(SCC(=O)O)c2c1	-0.0738 and -0.321
COc1ccc(C(=O)c2oc3ccccc3c2N)cc1	-0.229
COc1cccc(NC(=O)NCc2cccn2C)c1	0.0848
Cc1noc(C)c1CN(C(=S)NC1CC1)c1ccccc1	-0.228
Cc1ccccc1NC(=O)/C(=C/c1ccco1)c1ccccc1	1.54
